Publication PMC7819943, “Rice protein-binding microarrays: a tool to detect cis-acting elements near promoter regions in rice”
This is one part of the list.

What follows are sequences tested against T1, OsWOX13 (Oryza sativa, UniProt Q5QMM3 1-267) (assay: protein-binding microarray (RPBM); PBS, 2% BSA, 51.3 ng/ul salmon testes DNA, 50 uM zinc acetate, 200 nM TF, 25 C, 1 h; high values mean tight binding). Conditions: protein: recombinant; tags: N-terminal polyhistidine and DsRed monomer fusion (pET32a); label: CyDye5-dUTP incorporated in the synthesized complementary strand; 3' TTTTT single-stranded linker to array surface; dsDNA, one strand shown.
T1 sequence: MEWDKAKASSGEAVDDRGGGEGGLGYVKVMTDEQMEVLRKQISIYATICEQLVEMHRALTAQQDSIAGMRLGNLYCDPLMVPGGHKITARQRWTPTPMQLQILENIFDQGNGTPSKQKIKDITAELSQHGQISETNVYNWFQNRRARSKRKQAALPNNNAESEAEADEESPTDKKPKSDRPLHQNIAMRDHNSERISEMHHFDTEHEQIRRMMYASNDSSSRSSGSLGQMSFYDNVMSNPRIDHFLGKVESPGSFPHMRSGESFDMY
Procedure, shortened: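 Binding signal is reported as fluorescence intensity per feature (arbitrary units) from an Axon 4000B scanner. Incubation used 200 nM of each Ni–NTA-purified, N-terminally polyhistidine- and DsRed-fused transcription factor from E. coli BL21-CodonPlus on a double-stranded custom Agilent array for 1 h at 25 °C, with 50 µM zinc acetate in the buffer, followed by washing.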

First: ATGAACTAATTGATGGGAATATCTACTACTACTACCAGGTCGGAGTCACCTAGTGCAG
Second: TTAAACATCAAATCTAAGCTAATCTACTCCAGTTGGTAATCGGAGTCACCTAGTGCAG
The binding signal of the first is higher: 44600 fluorescence intensity (a.u.) for the first, 4100 fluorescence intensity (a.u.) for the second.

Compared with “ATAAATAGAGAGATTGTCTCTGTCACTGGTTGTGTGTGTGCGGAGTCACCTAGTGCAG”, “CAATGTAACTAATTTAGTGTTGTAGATGTTACTATATTTGCGGAGTCACCTAGTGCAG” is lower in binding signal: 17600 fluorescence intensity (a.u.) for the first, 5290 fluorescence intensity (a.u.) for the second.

Compared with “ATATATATATATATATATATATATCATCAATCTTTAGTTCCGGAGTCACCTAGTGCAG”, “AGTCAGATTTTAAATTTGTTCGCTTTTGAAAATATAGGAGCGGAGTCACCTAGTGCAG” is lower in binding signal: 8990 fluorescence intensity (a.u.) for the first, 4190 fluorescence intensity (a.u.) for the second.

Going from “CTGTGAAACTAATTTGATTCACTGTTAGGGAGTACTTCCCCGGAGTCACCTAGTGCAG” to “GTCGAATAGATTACATAATTTCAGATTTAAGCCAAGCATGCGGAGTCACCTAGTGCAG”, the binding signal rises from 15400 fluorescence intensity (a.u.) to 16600 fluorescence intensity (a.u.).

First: ATATCATAATTTGAATCGTCATGTATTTGTGTGCACGTACCGGAGTCACCTAGTGCAG
Second: GACAGATTGCCAGTTAGCCGGCTGATATAGTTCTTGATAACGGAGTCACCTAGTGCAG
The binding signal of the first is lower: 7860 fluorescence intensity (a.u.) for the first, 37900 fluorescence intensity (a.u.) for the second.

First: TTCCAGACATTAAACTCACTAATTATTGTCCTTTAGCATACGGAGTCACCTAGTGCAG
Second: GCTCTAATCATTGATGACATATATAAGCTTGACTTGGTCACGGAGTCACCTAGTGCAG
The binding signal of the first is lower: 4340 fluorescence intensity (a.u.) for the first, 26300 fluorescence intensity (a.u.) for the second.

First: ATTAAACCGACAAATTTTAATCAAACCTGATGAACAAATCCGGAGTCACCTAGTGCAG
Second: CTTTATTGATTGAGAGGAACTATCTACCTCTGTAATGACACGGAGTCACCTAGTGCAG
The binding signal of the first is lower: 6940 fluorescence intensity (a.u.) for the first, 39200 fluorescence intensity (a.u.) for the second.

Compared with “ATTTAACAAATTTTAAGTAAAATCATATGTAAAACATAGACGGAGTCACCTAGTGCAG”, “GTATAATAATAATAAATTAATTAAAGGACTGTATGTAAAACGGAGTCACCTAGTGCAG” is lower in binding signal: 10800 fluorescence intensity (a.u.) for the first, 10000 fluorescence intensity (a.u.) for the second.

Going from “CAAATTGCGGTAAGCCCTAATTAACAGTGGTAGGAACATTCGGAGTCACCTAGTGCAG” to “TTAACTCGATTGTGGGCTTAATTAGGAAACTGTCCTCTTCCGGAGTCACCTAGTGCAG”, the binding signal rises from 3180 fluorescence intensity (a.u.) to 8670 fluorescence intensity (a.u.).

First: ACCATATATTGATAGTGTACTATATGTTTATCGATAACTACGGAGTCACCTAGTGCAG
Second: AGCTTAATTAGCTCTAGAAGAAGAAGAAGAAGAAGAAGAACGGAGTCACCTAGTGCAG
The binding signal of the first is lower: 4010 fluorescence intensity (a.u.) for the first, 9290 fluorescence intensity (a.u.) for the second.

Compared with “AGGCTACATGAGGGAAATTAATTGAGACCACTTGTTCTGTCGGAGTCACCTAGTGCAG”, “CTCTGACTGCCCTCGCTAATCCAATTTCCGCATGTTCGTGCGGAGTCACCTAGTGCAG” is higher in binding signal: 6750 fluorescence intensity (a.u.) for the first, 8930 fluorescence intensity (a.u.) for the second.

Going from “ATAATAGATGCACTTATTAATTCCTTAACTCCAATATCTCCGGAGTCACCTAGTGCAG” to “GGACTAATTAGGCTCAAAAGACTCGTCTCGAGATTTCTATCGGAGTCACCTAGTGCAG”, the binding signal rises from 3370 fluorescence intensity (a.u.) to 29600 fluorescence intensity (a.u.).

First: GGTGGTAGATTAGATTCCAGCTGATCCAATCTGGTCCGGGCGGAGTCACCTAGTGCAG
Second: CATCCATCAGTGATGTATGGATTTCCATGATACCCAAGAGCGGAGTCACCTAGTGCAG
The binding signal of the first is higher: 7930 fluorescence intensity (a.u.) for the first, 4360 fluorescence intensity (a.u.) for the second.

Going from “TATAATAGATTCCCTCTCTAAGAAATATCATAAAGACGGGCGGAGTCACCTAGTGCAG” to “TTTTGCCTTCATGATTGATATCTATATGTATATATAAAGACGGAGTCACCTAGTGCAG”, the binding signal rises from 3880 fluorescence intensity (a.u.) to 12000 fluorescence intensity (a.u.).

First: TTTTGAGGAGGAATTTGATTGAAAGGATTTGGATTCGGAACGGAGTCACCTAGTGCAG
Second: TGGAGATTGCTTACACTGTTACGCAGTTAACAAAACTAGCCGGAGTCACCTAGTGCAG
The binding signal of the first is higher: 16900 fluorescence intensity (a.u.) for the first, 5570 fluorescence intensity (a.u.) for the second.

Compared with “ATATATATATATATATATATATATATATATATGATGTGCGCGGAGTCACCTAGTGCAG”, “ATAGATGATAGGAATATTTCCCCTACTTGCTAAATGGAATCGGAGTCACCTAGTGCAG” is lower in binding signal: 17800 fluorescence intensity (a.u.) for the first, 12100 fluorescence intensity (a.u.) for the second.

Going from “GAAATAAATTTTGGATTGGCTATGTTAATATGATATGACCCGGAGTCACCTAGTGCAG” to “TACTCTGCCAATCTAAATTAATGATGTATGATATGGTCTCCGGAGTCACCTAGTGCAG”, the binding signal rises from 25900 fluorescence intensity (a.u.) to 26200 fluorescence intensity (a.u.).

Compared with “TAAAAGAAATATTTGGCTAATTGACAAACGTAAAATTGGCCGGAGTCACCTAGTGCAG”, “AGTAATTGTGTAATTTTCACGATATCCGTGAGGTACAGTACGGAGTCACCTAGTGCAG” is lower in binding signal: 25700 fluorescence intensity (a.u.) for the first, 17000 fluorescence intensity (a.u.) for the second.

Compared with “CTGCTTAATTGCTCGGTTAATCCCTGCAAGGGGAGTAGAACGGAGTCACCTAGTGCAG”, “TTAATTTTAATTTTCTAATAAGCCAAATAAGCCATTTTGGCGGAGTCACCTAGTGCAG” is lower in binding signal: 17100 fluorescence intensity (a.u.) for the first, 13700 fluorescence intensity (a.u.) for the second.

Going from “TCCAAAACGTCAATTAAAATGAAACCGGAGGGAGTATGTGCGGAGTCACCTAGTGCAG” to “TTAACTAATAATAAAACTAATTGTATAAATGAGAGCTAATCGGAGTCACCTAGTGCAG”, the binding signal rises from 13300 fluorescence intensity (a.u.) to 15900 fluorescence intensity (a.u.).

First: CGGCGAGATTGGCGACCACCGCCTTTCCCTCCTCCTACACCGGAGTCACCTAGTGCAG
Second: ATTATGAAAATTTATTCAATTATAGATTTAATGAAACTATCGGAGTCACCTAGTGCAG
The binding signal of the first is higher: 9090 fluorescence intensity (a.u.) for the first, 6020 fluorescence intensity (a.u.) for the second.
